Results published in patent EP0745599A2, “1-(3-Heterocyclylphenyl)-s-triazine-2,4,6-oxo or thiotrione herbicidal agents” (American Cyanamid Company, priority 1995, dated 1996).
At least one read-out could not be matched to a standard name with certainty.

Tests used:
Type in all cases: in vivo
Conditions in all cases: rated four to five weeks after treatment
[1] = system: ABUTILON THEOPHRASTI, MEDIC.; test: Postemergence herbicidal evaluation, ABUTH (Velvetleaf)
Experimental: (§1) In the tests, seedling plants are grown in jiffy flats for about two weeks. The test compounds are dispersed in 50/50 acetone/water mixtures containing 0.5% TWEEN®20, a polyoxyethylene sorbitan monolaurate surfactant of Atlas Chemical Industries, in sufficient quantities to provide the equivalent of about 0.125 kg to 0.500 kg per hectare of active compound when applied to the plants through a spray nozzle operating at 40 psi for a predetermined time. After spraying, the plants are placed on greenhouse benches and are cared for in the usual manner, commensurate with conventional greenhouse practices. From four to five weeks after treatment, the seedling plants are examined and rated according to the rating system set forth below. Where more than one test is involved for a given compound, the data are averaged.
(§2) Results of herbicide evaluation are expressed on a rating scale (0-9). The scale is based upon a visual observation of plant stand, vigor, malformation, size, chlorosis and overall plant appearance as compared with a control.

[2] = system: AMBROSIA ARTEMISIIFOLIA, L.; test: Postemergence herbicidal evaluation, AMBEL (Ragweed, Common)
Experimental: as §1, §2

CASSIA OBTUSIFOLIA, L. = test: Postemergence herbicidal evaluation, CASOB (Sicklepod)
Experimental: as §1, §2

CHENOPODIUM ALBUM, L. = test: Postemergence herbicidal evaluation, CHEAL (Lambsquarters, Common)
Experimental: as §1, §2

IPOMOEA SPP. = test: Postemergence herbicidal evaluation, IPOSS (Morningglory Spp.)
GALIUM APARINE = test: Postemergence herbicidal evaluation, GALAP (Galium)
[3] = system: SETARIA VIRIDIS, (L) BEAU; test: Postemergence herbicidal evaluation, SETVI (Foxtail, Green)
Experimental: as §1, §2

[4] = system: GLYCINE MAX(L)MERR. CV. WILLIAMS; test: Postemergence herbicidal evaluation, GLXMAW (Soybean, Williams)
Experimental: as §1, §2

[5] = system: ORYZA SATIVA, L. TEBONNET; test: Postemergence herbicidal evaluation, ORYSAT (Rice, Tebonnet)
Experimental: as §1, §2

[6] = system: TRITICUM AESTIVUM, CV. APOLLO; test: Postemergence herbicidal evaluation, TRZAWO (Wheat, Winter, CV. APOLLO)
Experimental: as §1, §2

ZEA MAYS L. = test: Postemergence herbicidal evaluation, ZEAMX (Corn, Field)
Experimental: as §1, §2

SMILES	Herbicide rating (0-9) ABUTH ([1]; 0.125 kg/ha)	Herbicide rating (0-9) ABUTH ([1]; 0.250 kg/ha)	Herbicide rating (0-9) ABUTH ([1]; 0.500 kg/ha)	Herbicide rating (0-9) AMBEL ([2]; 0.125 kg/ha)	Herbicide rating (0-9) AMBEL ([2]; 0.250 kg/ha)	Herbicide rating (0-9) AMBEL ([2]; 0.500 kg/ha)	Herbicide rating (0-9) CASOB (CASSIA OBTUSIFOLIA, L.; 0.125 kg/ha)	Herbicide rating (0-9) CASOB (CASSIA OBTUSIFOLIA, L.; 0.250 kg/ha)	Herbicide rating (0-9) CASOB (CASSIA OBTUSIFOLIA, L.; 0.500 kg/ha)	Herbicide rating (0-9) CHEAL (CHENOPODIUM ALBUM, L.; 0.125 kg/ha)	Herbicide rating (0-9) CHEAL (CHENOPODIUM ALBUM, L.; 0.250 kg/ha)	Herbicide rating (0-9) IPOSS (IPOMOEA SPP.; 0.125 kg/ha)	Herbicide rating (0-9) IPOSS (IPOMOEA SPP.; 0.250 kg/ha)	Herbicide rating (0-9) IPOSS (IPOMOEA SPP.; 0.500 kg/ha)	Herbicide rating (0-9) GALAP (GALIUM APARINE; 0.125 kg/ha)	Herbicide rating (0-9) GALAP (GALIUM APARINE; 0.250 kg/ha)	Herbicide rating (0-9) GALAP (GALIUM APARINE; 0.500 kg/ha)	Herbicide rating (0-9) ZEAMX (ZEA MAYS L.; 0.125 kg/ha)	Herbicide rating (0-9) ZEAMX (ZEA MAYS L.; 0.250 kg/ha)	Herbicide rating (0-9) ZEAMX (ZEA MAYS L.; 0.500 kg/ha)	further results
C=CCn1c(=O)n(C)c(=O)n(-c2cc(N3C(=O)C4=C(CCCC4)C3=O)c(F)cc2Cl)c1=O [Compound 17, N-[5-(3-Allylhexahydro-5-methyl-2,4,6-trioxo-s-triazin-1-yl)-4-chloro-2-fluoro-phenyl]-1-cyclohexene-1,2-dicarboximide]	6.0	6.0	8.0	4.0	5.0	7.0	2.0	3.0	2.0	5.0	6.0	3.0	3.0	5.0	2.0	3.0	4.0	2.5	3.0	4.0	Herbicide rating (0-9) CHEAL (CHENOPODIUM ALBUM, L.; 0.500 kg/ha): 8.0; Herbicide rating (0-9) SETVI ([3]; 0.125 kg/ha): 1.0; Herbicide rating (0-9) SETVI ([3]; 0.250 kg/ha): 1.0; Herbicide rating (0-9) SETVI ([3]; 0.500 kg/ha): 2.0; Herbicide rating (0-9) GLXMAW ([4]; 0.125 kg/ha): 3.0; Herbicide rating (0-9) GLXMAW ([4]; 0.250 kg/ha): 4.0; Herbicide rating (0-9) GLXMAW ([4]; 0.500 kg/ha): 5.5; Herbicide rating (0-9) ORYSAT ([5]; 0.125 kg/ha): 2.5; Herbicide rating (0-9) ORYSAT ([5]; 0.250 kg/ha): 2.5; Herbicide rating (0-9) ORYSAT ([5]; 0.500 kg/ha): 3.5; Herbicide rating (0-9) TRZAWO ([6]; 0.125 kg/ha): 2.0; Herbicide rating (0-9) TRZAWO ([6]; 0.250 kg/ha): 2.5; Herbicide rating (0-9) TRZAWO ([6]; 0.500 kg/ha): 3.0
C#CCn1c(=O)n(CC=C)c(=O)n(-c2cc(N3C(=O)C4=C(CCCC4)C3=O)c(F)cc2Cl)c1=O [Compound 20, N-{5-[3-Allylhexahydro-2,4,6-trioxo-5-(2-propynyl)-s-triazin-1-yl]-4-chloro-2-fluoro-phenyl}-1-cyclohexene-1,2-dicarboximide]	3.0	6.0	6.0	4.0	5.0	6.0	0.0	0.0	2.0	7.0	7.0	2.0	4.0	6.0	2.0	2.0	8.0	2.0	2.0	3.0	Herbicide rating (0-9) CHEAL (CHENOPODIUM ALBUM, L.; 0.500 kg/ha): 8.0; Herbicide rating (0-9) GLXMAW ([4]; 0.125 kg/ha): 1.0; Herbicide rating (0-9) GLXMAW ([4]; 0.250 kg/ha): 1.0; Herbicide rating (0-9) GLXMAW ([4]; 0.500 kg/ha): 2.0; Herbicide rating (0-9) TRZAWO ([6]; 0.125 kg/ha): 1.0; Herbicide rating (0-9) TRZAWO ([6]; 0.250 kg/ha): 2.0; Herbicide rating (0-9) TRZAWO ([6]; 0.500 kg/ha): 2.0
CC(C)OC(=O)Cn1c(=O)n(C)c(=O)n(-c2cc(N=c3sc(=O)n4n3CCCC4)c(F)cc2Cl)c1=O [Compound 13, Isopropyl 3-{2-chloro-4-fluoro-5-[(tetra-hydro-3-oxo-1H,3H-[1,3,4]thiadiazolo[3,4-a]pyridazin-1-ylidene)amino]phenyl}tetra-hydro-5-methyl-2,4,6-trioxo-s-triazine-1(2H)-acetate]	–	–	–	6.0	7.0	9.0	7.0	9.0	9.0	8.0	9.0	7.0	8.0	9.0	7.0	9.0	8.0	3.5	3.5	4.0	Herbicide rating (0-9) CHEAL (CHENOPODIUM ALBUM, L.; 0.500 kg/ha): 9.0; Herbicide rating (0-9) GLXMAW ([4]; 0.125 kg/ha): 5.5; Herbicide rating (0-9) GLXMAW ([4]; 0.250 kg/ha): 5.5; Herbicide rating (0-9) GLXMAW ([4]; 0.500 kg/ha): 6.5; Herbicide rating (0-9) ORYSAT ([5]; 0.125 kg/ha): 4.0; Herbicide rating (0-9) ORYSAT ([5]; 0.250 kg/ha): 4.5; Herbicide rating (0-9) ORYSAT ([5]; 0.500 kg/ha): 4.0
COC(=O)Cn1c(=O)n(C)c(=O)n(-c2cc(N3C(=O)C4=C(CCCC4)C3=O)ccc2F)c1=O [Compound 5, Methyl 3-[5-(1-cyclohexene-1,2-dicarbox-imido)-2-fluorophenyl]tetrahydro-5-methyl-2,4,6-trioxo-s-triazine-1(2H)-acetate]	2.0	0.0	2.0	–	–	–	–	–	–	–	–	3.0	2.0	5.0	0.0	2.0	3.0	2.5	2.5	3.5	Herbicide rating (0-9) SETVI ([3]; 0.125 kg/ha): 0.0; Herbicide rating (0-9) SETVI ([3]; 0.250 kg/ha): 0.0; Herbicide rating (0-9) SETVI ([3]; 0.500 kg/ha): 2.0; Herbicide rating (0-9) GLXMAW ([4]; 0.125 kg/ha): 4.0; Herbicide rating (0-9) GLXMAW ([4]; 0.250 kg/ha): 4.5; Herbicide rating (0-9) GLXMAW ([4]; 0.500 kg/ha): 4.5; Herbicide rating (0-9) ORYSAT ([5]; 0.125 kg/ha): 1.5; Herbicide rating (0-9) ORYSAT ([5]; 0.250 kg/ha): 2.0; Herbicide rating (0-9) ORYSAT ([5]; 0.500 kg/ha): 2.0; Herbicide rating (0-9) TRZAWO ([6]; 0.125 kg/ha): 1.0; Herbicide rating (0-9) TRZAWO ([6]; 0.250 kg/ha): 1.0; Herbicide rating (0-9) TRZAWO ([6]; 0.500 kg/ha): 2.0
C=CCn1c(=O)n(CC=C)c(=O)n(-c2cc(N3C(=O)C4=C(CCCC4)C3=O)c(F)cc2Cl)c1=O [Compound 19, N-[4-Chloro-5-(3,5-diallylhexahydro-2,4,6-trioxo-s-triazin-1-yl)-2-fluorophenyl]-1-cyclohexene-1,2-dicarboximide]	1.0	3.0	3.0	4.0	5.0	6.0	0.0	0.0	2.0	4.0	6.0	1.0	3.0	3.0	3.0	4.0	4.0	1.0	2.0	3.0	Herbicide rating (0-9) CHEAL (CHENOPODIUM ALBUM, L.; 0.500 kg/ha): 7.0
C#CCn1c(=O)n(C)c(=O)n(-c2cc(N3C(=O)C4=C(CCCC4)C3=O)c(F)cc2Cl)c1=O [Compound 16, N-{4-Chloro-2-fluoro-5-[hexahydro-3-methyl-2,4,6-trioxo-5-(2-propynyl)-s-triazin-1-yl]phenyl}-1-cyclohexene-1,2-dicarboximide]	2.0	3.0	4.0	2.0	4.0	4.0	1.0	2.0	3.0	4.0	5.0	4.0	6.0	6.0	3.0	4.0	4.0	2.5	3.5	4.0	Herbicide rating (0-9) CHEAL (CHENOPODIUM ALBUM, L.; 0.500 kg/ha): 5.0; Herbicide rating (0-9) GLXMAW ([4]; 0.125 kg/ha): 3.0; Herbicide rating (0-9) GLXMAW ([4]; 0.250 kg/ha): 3.5; Herbicide rating (0-9) GLXMAW ([4]; 0.500 kg/ha): 4.0; Herbicide rating (0-9) ORYSAT ([5]; 0.125 kg/ha): 3.0; Herbicide rating (0-9) ORYSAT ([5]; 0.250 kg/ha): 4.5; Herbicide rating (0-9) ORYSAT ([5]; 0.500 kg/ha): 4.5; Herbicide rating (0-9) TRZAWO ([6]; 0.125 kg/ha): 2.5; Herbicide rating (0-9) TRZAWO ([6]; 0.250 kg/ha): 3.5; Herbicide rating (0-9) TRZAWO ([6]; 0.500 kg/ha): 4.0
